# In the supplement of paper PMC8728848:
# Some of the results follow.
# B1: AAA (Anguilla anguilla), Q7SIC1 (protein)
# chain: VIPEGYTQENVAVRGKATQSAQLRGEHAANSEASNAIDGNRDSNFYHGSCTHSSGQANPWWRVDLLQVYTITSVTITNRGDCCGERISGAEINIGQHLASNGVNNPECSVIGSMATGETKTFHCPAPMIGRYVVTYLPTSESLHLCEVEVNVDKPAAA
# Columns and labels:
# Assay in all cases: glycan array binding signal (z-score within array); higher = stronger binding
# Details in all cases: glycan notation: IUPAC condensed, linker removed
# [1] = biological target: GalNAc(a1-3)GalNAc(a1-3)Gal(a1-4)Gal(b1-4)GlcNAc
# How it was run: (§1)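 Columns mapping to the same glycan were averaged after glycan names were converted to IUPAC-condensed notation. The data come from 3228 arrays in the Consortium for Functional Glycomics database, limited to those with an available protein sequence. Binding is reported as a within-array Z-score averaged across arrays of one protein sequence and across linkers.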
# [2] = biological target: GalNAc(a1-3)GalNAc(b1-3)Gal(a1-4)Gal(b1-4)Glc
# How it was run: as §1
# GalNAc(b1-3)Gal = biological target: GalNAc(b1-3)Gal
# How it was run: as §1
# [3] = biological target: GalNAc(b1-3)Gal(a1-4)Gal(b1-4)GlcNAc
# How it was run: as §1
# [4] = biological target: GalNAc(b1-3)Gal(a1-4)Gal(b1-4)GlcNAc(b1-3)Gal(b1-4)Glc
# How it was run: as §1
# [5] = biological target: GalNAc(b1-3)Gal(a1-6)Gal(b1-4)Glc
# How it was run: as §1
# GalNAc(b1-3)GalNAc = biological target: GalNAc(b1-3)GalNAc
# How it was run: as §1
# GalNAc(b1-3)GlcNAc = biological target: GalNAc(b1-3)GlcNAc
# How it was run: as §1
# GalNAc(b1-4)Gal(b1-4)Glc = biological target: GalNAc(b1-4)Gal(b1-4)Glc
# How it was run: as §1
# GalNAc(b1-4)GlcNAc = biological target: GalNAc(b1-4)GlcNAc
# How it was run: as §1
# [6] = biological target: GalNAc(b1-4)GlcNAc(b1-2)Man
# How it was run: as §1
# [7] = biological target: GalNAc(b1-4)GlcNAc(b1-2)Man(a1-3)[GalNAc(b1-4)GlcNAc(b1-2)Man(a1-6)]Man(b1-4)GlcNAc(b1-4)GlcNAc
# How it was run: as §1
# [8] = biological target: GalNAc(b1-4)GlcNAc(b1-3)GalNAc(b1-4)GlcNAc
# How it was run: as §1
# GalNAc(b1-4)GlcNAc6S = biological target: GalNAc(b1-4)GlcNAc6S
# How it was run: as §1
# GalNAc(b1-6)GalNAc = biological target: GalNAc(b1-6)GalNAc
# How it was run: as §1
# GalNAc3S(b1-4)GlcNAc = biological target: GalNAc3S(b1-4)GlcNAc
# How it was run: as §1
# GalNAc3S(b1-4)GlcNAc3S = biological target: GalNAc3S(b1-4)GlcNAc3S
# How it was run: as §1
# [9] = biological target: GalNAc3S(b1-4)[Fuc(a1-3)]GlcNAc
# How it was run: as §1
# GalNAc4S6S(b1-4)GlcNAc = biological target: GalNAc4S6S(b1-4)GlcNAc
# How it was run: as §1
# GalNAc6S(b1-4)GlcNAc = biological target: GalNAc6S(b1-4)GlcNAc
# How it was run: as §1
# Glc(a1-4)Glc = biological target: Glc(a1-4)Glc
# How it was run: as §1
# [10] = biological target: Glc(a1-4)Glc(a1-4)Glc(a1-4)Glc
# How it was run: as §1
# Glc(a1-6)Glc(a1-6)Glc = biological target: Glc(a1-6)Glc(a1-6)Glc
# How it was run: as §1
# [11] = biological target: Glc(a1-6)Glc(a1-6)Glc(a1-6)Glc
# How it was run: as §1
# Glc(b1-4)Glc = biological target: Glc(b1-4)Glc
# How it was run: as §1
# Glc(b1-6)Glc = biological target: Glc(b1-6)Glc
# How it was run: as §1
# GlcA(b1-3)Gal = biological target: GlcA(b1-3)Gal
# How it was run: as §1
# GlcA(b1-3)GlcNAc = biological target: GlcA(b1-3)GlcNAc
# How it was run: as §1
# GlcA(b1-6)Gal = biological target: GlcA(b1-6)Gal
# How it was run: as §1
# [12] = biological target: GlcA3S(b1-3)Gal(b1-4)GlcNAc(b1-2)Man
# How it was run: as §1
# [13] = biological target: GlcA3S(b1-3)Gal(b1-4)GlcNAc(b1-3)Gal(b1-4)Glc
# How it was run: as §1
# [14] = biological target: GlcNAc(a1-3)Gal(b1-4)GlcNAc
# How it was run: as §1
# [15] = biological target: GlcNAc(a1-4)Gal(b1-3)GlcNAc
# How it was run: as §1
# [16] = biological target: GlcNAc(a1-4)Gal(b1-4)GalNAc
# How it was run: as §1
# [17] = biological target: GlcNAc(a1-4)Gal(b1-4)GlcNAc
# How it was run: as §1
# [18] = biological target: GlcNAc(a1-4)Gal(b1-4)GlcNAc(b1-3)Gal(b1-4)Glc
# How it was run: as §1
# [19] = biological target: GlcNAc(a1-4)Gal(b1-4)GlcNAc(b1-3)Gal(b1-4)GlcNAc
# How it was run: as §1
# [20] = biological target: GlcNAc(a1-4)Gal(b1-4)GlcNAc(b1-3)Gal(b1-4)GlcNAc(b1-3)Gal(b1-4)GlcNAc
# How it was run: as §1
# [21] = biological target: GlcNAc(a1-4)Gal(b1-4)GlcNAc(b1-3)Gal(b1-4)[Fuc(a1-3)]GlcNAc(b1-3)Gal(b1-4)[Fuc(a1-3)]GlcNAc
# How it was run: as §1
# [22] = biological target: GlcNAc(a1-6)Gal(b1-4)GlcNAc
# How it was run: as §1
# [23] = biological target: GlcNAc(b1-2)Gal(b1-3)GalNAc
# How it was run: as §1
# [24] = biological target: GlcNAc(b1-2)Gal(b1-3)GlcNAc
# How it was run: as §1
# [25] = biological target: GlcNAc(b1-2)Man(a1-3)[GlcNAc(b1-2)Man(a1-6)]Man(b1-4)GlcNAc(b1-4)GlcNAc
# How it was run: as §1
# [26] = biological target: GlcNAc(b1-2)Man(a1-3)[GlcNAc(b1-2)Man(a1-6)]Man(b1-4)GlcNAc(b1-4)[Fuc(a1-6)]GlcNAc
# How it was run: as §1
# [27] = biological target: GlcNAc(b1-2)Man(a1-3)[GlcNAc(b1-4)][GlcNAc(b1-2)Man(a1-6)]Man(b1-4)GlcNAc(b1-4)GlcNAc
# How it was run: as §1
binder,measurement,setting,value
B1,glycan array binding signal (z-score),[1],-0.227
same,glycan array binding signal (z-score),[2],-0.206
same,glycan array binding signal (z-score),GalNAc(b1-3)Gal,-0.159
same,glycan array binding signal (z-score),[3],-0.214
same,glycan array binding signal (z-score),[4],-0.262
same,glycan array binding signal (z-score),[5],-0.072
same,glycan array binding signal (z-score),GalNAc(b1-3)GalNAc,-0.16
same,glycan array binding signal (z-score),GalNAc(b1-3)GlcNAc,-0.333
same,glycan array binding signal (z-score),GalNAc(b1-4)Gal(b1-4)Glc,-0.076
same,glycan array binding signal (z-score),GalNAc(b1-4)GlcNAc,1.89
same,glycan array binding signal (z-score),[6],1.78
same,glycan array binding signal (z-score),[7],0.974
same,glycan array binding signal (z-score),[8],3.34
same,glycan array binding signal (z-score),GalNAc(b1-4)GlcNAc6S,0.254
same,glycan array binding signal (z-score),GalNAc(b1-6)GalNAc,-0.222
same,glycan array binding signal (z-score),GalNAc3S(b1-4)GlcNAc,-0.231
same,glycan array binding signal (z-score),GalNAc3S(b1-4)GlcNAc3S,-0.254
same,glycan array binding signal (z-score),[9],-0.2
same,glycan array binding signal (z-score),GalNAc4S6S(b1-4)GlcNAc,-0.264
same,glycan array binding signal (z-score),GalNAc6S(b1-4)GlcNAc,0.974
same,glycan array binding signal (z-score),Glc(a1-4)Glc,-0.131
same,glycan array binding signal (z-score),[10],-0.058
same,glycan array binding signal (z-score),Glc(a1-6)Glc(a1-6)Glc,-0.236
same,glycan array binding signal (z-score),[11],-0.135
same,glycan array binding signal (z-score),Glc(b1-4)Glc,-0.247
same,glycan array binding signal (z-score),Glc(b1-6)Glc,-0.235
same,glycan array binding signal (z-score),GlcA(b1-3)Gal,0.003
same,glycan array binding signal (z-score),GlcA(b1-3)GlcNAc,-0.25
same,glycan array binding signal (z-score),GlcA(b1-6)Gal,-0.349
same,glycan array binding signal (z-score),[12],-0.179
same,glycan array binding signal (z-score),[13],-0.136
same,glycan array binding signal (z-score),[14],1.4
same,glycan array binding signal (z-score),[15],-0.011
same,glycan array binding signal (z-score),[16],0.012
same,glycan array binding signal (z-score),[17],2.3
same,glycan array binding signal (z-score),[18],1.66
same,glycan array binding signal (z-score),[19],1.96
same,glycan array binding signal (z-score),[20],2.29
same,glycan array binding signal (z-score),[21],0.711
same,glycan array binding signal (z-score),[22],-0.279
same,glycan array binding signal (z-score),[23],-0.181
same,glycan array binding signal (z-score),[24],-0.295
same,glycan array binding signal (z-score),[25],-0.274
same,glycan array binding signal (z-score),[26],-0.058
same,glycan array binding signal (z-score),[27],0.635
